{
  "source": "PubChem BioAssay AID1460",
  "about": "(National Center for Advancing Translational Sciences (NCATS), 2008)",
  "note": "Values joined by “and” are separate entries in the source; they are usually repeats but may differ in a detail not shown here. Identical values can stand only once. Among all 270,000 compounds or so, about 5,800 (2.1%) were called active. Inconclusive results, whose numbers are uncertain, are shown with a selection of clear calls. Calls follow the shape of the dose curve; as a rule, active = well fitted inhibition curve with a large enough effect; inconclusive = small, poorly fitted or top-dose-only effect; inactive = flat fitted curve, though single readings scatter. Potencies of inconclusive entries are doubtful fits and often do not repeat. Potency is read from the fitted curve at half-maximal effect; tags tell the direction and shape of the fitted curve.",
  "data": [
    {"molecular_target": "Microtubule-associated protein tau (Homo sapiens) (UniProt P10636)", "sequence (P10636 whole entry, looked up, the tested form may be a part)": "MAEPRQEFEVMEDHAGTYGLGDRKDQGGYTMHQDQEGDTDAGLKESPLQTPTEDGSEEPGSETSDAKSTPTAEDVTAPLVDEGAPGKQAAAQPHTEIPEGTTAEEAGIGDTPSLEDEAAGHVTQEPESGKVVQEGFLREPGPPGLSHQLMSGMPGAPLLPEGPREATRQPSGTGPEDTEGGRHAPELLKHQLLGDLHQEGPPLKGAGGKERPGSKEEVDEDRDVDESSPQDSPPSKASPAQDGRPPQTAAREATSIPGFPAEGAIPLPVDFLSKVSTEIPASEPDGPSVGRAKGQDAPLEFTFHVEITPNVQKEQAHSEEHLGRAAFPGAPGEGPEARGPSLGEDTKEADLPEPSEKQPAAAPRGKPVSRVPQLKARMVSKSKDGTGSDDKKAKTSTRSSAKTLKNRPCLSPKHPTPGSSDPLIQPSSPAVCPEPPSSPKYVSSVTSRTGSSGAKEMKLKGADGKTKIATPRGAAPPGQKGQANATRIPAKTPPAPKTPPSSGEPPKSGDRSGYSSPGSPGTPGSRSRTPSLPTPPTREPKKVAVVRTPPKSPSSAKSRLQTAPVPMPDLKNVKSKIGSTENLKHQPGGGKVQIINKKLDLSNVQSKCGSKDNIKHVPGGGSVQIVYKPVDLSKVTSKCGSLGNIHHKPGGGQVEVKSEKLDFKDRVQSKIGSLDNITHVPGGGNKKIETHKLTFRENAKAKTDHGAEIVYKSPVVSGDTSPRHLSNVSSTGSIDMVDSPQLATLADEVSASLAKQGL", "assay": "qHTS for Inhibitors of Tau Fibril Formation, Thioflavin T Binding; also: nearly all actives have a fitted effect of over 55% in size", "conditions": "recombinant tau K18 P301L (four-repeat tau fragment), heparin-induced fibrillization, ThT fluorescence; series mostly up to 57.4 µM", "from_the_text": "NIH Molecular Libraries Probe Production Network [MLPCN]\nNIH Chemical Genomics Center [NCGC]\nAssay Provider: Carlo Ballatore, University of Pennsylvania\nThe microtubule-associated protein tau is an abundant protein in the axons of neurons that stabilizes microtubules. With its ability to modulate microtubule dynamics, tau contributes directly or indirectly, to key structural and regulatory cellular functions. Particularly important is the influence tau exerts on axonal transport, which allows signaling molecules, trophic factors and other essential cellular constituents to travel along the axons. Under pathological conditions, tau becomes sequestered into insoluble aggregates called neurofibrillary tangles. This phenomenon is believed to have pathological consequences by promoting axonal transport deficits that ultimately lead to synaptic dysfunction and neuronal loss. To identify inhibitors of tau aggregation, a heparin-induced tau fibril formation assay was used that employed a recombinantly expressed fragment of tau, K18 (Q242-E372), bearing a P301L mutation (Gustke et al. 1994; Hong et al. 1998). This assay monitors tau fibrillization by Thioflavin T (ThT) fluorescence.\nGustke, N., B. Trinczek, et al. (1994). \"Domains of tau protein and interactions with microtubules.\" Biochemistry 33(32): 9511-22.\nHong, M., V. Zhukareva, et al. (1998).\nLi, W. and V. M. Lee (2006).\nvon Bergen, M., S. Barghorn, et al. (2001). \"Mutations of tau protein in frontotemporal dementia promote aggregation of paired helical filaments by enhancing local beta-structure.\" J Biol Chem 276(51): 48165-74.\nNCGC Assay Protocol Summary:\nFor screening, 2 uL/well human K18 P301L (15 uM unlabeled and 0.24 uM Alexa 594-labeled tau, final concentrations) in reagent buffer (100 mM sodium acetate pH 7) was dispensed into black solid 1536-well plates (Grenier) using a solenoid-based dispenser. Following transfer of 23 nL compound or DMSO vehicle by a pin tool, 2 uL/well heparin (20 uM final concentration) in reagent buffer was added and the plate centrifuged 15 s at 1000 RPM. Plates were incubated 6 hr at 37 C and then 1 uL/well ThT (30 uM final concentration) was added. After a 1 hr ambient incubation, the plates were read by an Envision (Perkin Elmer) to monitor ThT fluorescence (450/8 nm excitation and 510/23 nm emission).\nKeywords: NIH Roadmap, MLPCN, MLI, MLSMR, NCGC, qHTS, tau, tauopathies, Alzheimer's disease, fibril, neurodegeneration, aggregation", "values": [
      {"smiles": "COc1cccc(C2CC3C(=O)C=CC2N3Cc2ccccc2)c1", "note": "(stereo unspecified)", "Potency": "inconclusive: 25.1 µM [inhibitor, single point]"},
      {"smiles": "CCC/C=C(\\CCC)C(NP(=O)(c1ccccc1)c1ccccc1)c1ccccc1", "note": "(stereo unspecified)", "Potency": "inconclusive: 11.2 µM [inhibitor, partial curve]"},
      {"smiles": "N[C@@H](Cn1oc(=O)[nH]c1=O)C(=O)O", "Potency": "inactive"},
      {"smiles": "CC(C)CNC(=O)c1c(N)n(Cc2ccc3c(c2)OCO3)c2nc3ccccc3nc12", "Potency": "inconclusive: 17.8 µM [inhibitor, partial curve, poor fit]"},
      {"smiles": "CSc1ncc(C(=O)Nc2ccc(Cl)cc2C(=O)c2ccccc2)c(C)n1", "Potency": "inactive"},
      {"smiles": "Cc1nn(CCC#N)c2c1P(=S)(N1CCCC1)OC(c1ccc(F)cc1)=N2", "note": "(stereo unspecified)", "Potency": "active: 31.6 µM"},
      {"smiles": "CN1C(=O)C(=Cc2ccccc2OCc2ccccc2Cl)C(=O)N(C)C1=O", "Potency": "inconclusive: 8.91 µM [inhibitor, partial curve]"},
      {"smiles": "Cc1cc(OC(=O)c2ccco2)c2c3c(c(=O)oc2c1)CCCC3", "Potency": "inconclusive: 17.8 µM [inhibitor, partial curve]"},
      {"smiles": "Cc1noc(C(=O)Nc2sc3c(c2C#N)CCC3)c1Cl", "Potency": "inconclusive: 17.8 µM [inhibitor, partial curve]"},
      {"smiles": "O=C(O)c1ccccc1-c1c2cc(Br)c(=O)cc-2oc2[c]([Hg])c(O)c(Br)cc12", "Potency": "inconclusive: 25.1 µM [activator, single point]"},
      {"smiles": "COc1ccc(C(=O)C2CCCN(Cc3ccc(C)s3)C2)c(OC)c1", "note": "(stereo unspecified)", "Potency": "inactive"},
      {"smiles": "CCN(C(=O)CSc1ncccc1C(=O)Oc1cccc([N+](=O)[O-])c1)c1cccc(C)c1", "Potency": "inconclusive: 8.91 µM [inhibitor, full curve]"},
      {"smiles": "Cc1ccc(N2C(=O)/C(=C/N3CCN(C(=O)c4ccco4)CC3)C(=O)NC2=S)cc1C", "Potency": "inconclusive: 15.8 µM [inhibitor, partial curve]"},
      {"smiles": "Cc1cc(Br)c(NC(=O)CN2CC=C(c3ccccc3)CC2)c(Br)c1", "Potency": "inconclusive: 14.1 µM [inhibitor, single point]"},
      {"smiles": "CC/C(=N\\Nc1ccccc1)c1c(O)[nH]c(=O)[nH]c1=O", "Potency": "inactive"},
      {"smiles": "COc1ccc(-n2c(Cc3ccccc3)nc3ccccc3c2=O)cc1", "Potency": "inactive"},
      {"smiles": "O=C1NC(=O)N(CCc2ccc(F)cc2)C(=O)/C1=C\\C=C\\c1ccccc1", "Potency": "active: 28.2 µM"},
      {"smiles": "O=C1CN(C(=O)COC(=O)Cc2ccccc2)c2ccccc2N1", "Potency": "inactive"},
      {"smiles": "c1ccc2c(c1)Sc1ccccc1N2CC1CN2CCC1CC2", "note": "(stereo unspecified)", "Potency": "inconclusive: 22.4 µM [inhibitor, partial curve]"},
      {"smiles": "COc1ccc(OC)c(N2C(=O)NC(=O)/C(=C/c3ccc([N+](=O)[O-])s3)C2=O)c1", "Potency": "active: 12.6 µM"},
      {"smiles": "S=C(S)N1CCCC1", "Potency": "active: 31.6 µM"},
      {"smiles": "N=C1c2ccccc2CN1CC(=O)c1ccccc1", "Potency": "inconclusive: 31.6 µM [inhibitor, single point]"},
      {"smiles": "COC(=O)/C=C\\C(=O)N[C@@H]1CC[C@@]2(O)[C@H]3Cc4ccc(O)c5c4[C@@]2(CCN3CC2CC2)[C@@H]1O5", "Potency": "inconclusive: 22.4 µM [inhibitor, partial curve, poor fit]"},
      {"smiles": "Nc1c(C(=O)NCc2ccco2)c2nc3ccccc3nc2n1CCN1CCOCC1", "Potency": "inconclusive: 28.2 µM [inhibitor, partial curve]"},
      {"smiles": "CC(C)C[C@H]1C(=O)N2CCC[C@@H]2[C@]2(O)O[C@](NC(=O)[C@@H]3C=C4c5cccc6[nH]c(Br)c(c56)C[C@H]4N(C)C3)(C(C)C)C(=O)N12", "Potency": "inconclusive: 39.8 µM [inhibitor, single point]"},
      {"smiles": "O=[N+]([O-])c1ccc(N2CCNCC2)cc1NCC1CCCO1", "note": "(stereo unspecified)", "Potency": "inconclusive: 22.4 µM [inhibitor, partial curve]"},
      {"smiles": "Cn1cc(C(=O)N2CCCCC2)c2ccccc21", "Potency": "inactive"},
      {"smiles": "COc1ccc(NC(C)=O)cc1NC(=O)c1cccn(Cc2ccccc2)c1=O", "Potency": "inconclusive: 14.1 µM [inhibitor, single point]"},
      {"smiles": "CN1C(C(=O)NCc2cccc(C(F)(F)F)c2)CC2Cn3c(nc4cc5ccccc5cc43)C21", "note": "(stereo unspecified)", "Potency": "inconclusive: 17.8 µM [inhibitor, single point]"},
      {"smiles": "CN1C[C@H](C(=O)N[C@]2(C)O[C@@]3(O)C4CCCN4C(=O)[C@H](Cc4ccccc4)N3C2=O)C[C@@H]2c3cccc4[nH]cc(c34)C[C@H]21", "note": "(stereo partly specified)", "Potency": "inconclusive: 35.5 µM [inhibitor, single point] and inconclusive: 39.8 µM [inhibitor, single point]"},
      {"smiles": "CCC(C)c1ccc(N2C(=O)NC(=O)/C(=C/c3cccn3CCOc3ccc(C)cc3)C2=O)cc1", "note": "(stereo unspecified)", "Potency": "inconclusive: 14.1 µM [inhibitor, partial curve]"},
      {"smiles": "CCCCCc1cc(O)c2c3c(c(=O)oc2c1)CN(C)CC3", "Potency": "inconclusive: 7.94 µM [inhibitor, full curve, poor fit]"},
      {"smiles": "CN(N)N=Nc1nc2c([nH]1)c(=O)n(C)c(=O)n2C", "Potency": "inconclusive: 15.8 µM [inhibitor, partial curve]"},
      {"smiles": "CN1c2ccc([N+](=O)[O-])cc2CC2(C(=O)NC(=O)N(c3ccc(Br)cc3)C2=O)C1c1ccccc1", "note": "(stereo unspecified)", "Potency": "active: 15.8 µM"},
      {"smiles": "CN1C(=O)C(=Cc2ccc(Sc3ccccc3)o2)C(=O)N(C)C1=O", "Potency": "inconclusive: 7.94 µM [inhibitor, partial curve]"},
      {"smiles": "O=c1[nH]c(CN2CC=C(c3ccccc3)CC2)nc2scc(-c3ccccc3)c12", "Potency": "inconclusive: 39.8 µM [inhibitor, single point]"},
      {"smiles": "COc1ccccc1OCCCn1cc(C=O)c2ccccc21", "Potency": "inconclusive: 39.8 µM [inhibitor, single point]"},
      {"smiles": "Cc1cccc2c1=NC(=O)/C(=C/c1c(O)[nH]c(=O)[nH]c1=O)C=2", "Potency": "inconclusive: 8.91 µM [inhibitor, partial curve]"},
      {"smiles": "CCCC1COC(Cn2cncn2)(c2ccc(Cl)cc2Cl)O1", "note": "(stereo unspecified)", "Potency": "inactive"},
      {"smiles": "Cc1nn(C(C)(C)C)c(C)c1/C=N/OC(=O)Nc1ccc(Cl)c(Cl)c1", "Potency": "inconclusive: 1.78 µM [inhibitor, partial curve, poor fit]"},
      {"smiles": "CN1CCC23CCCC[C@H]2C1Cc1ccc(O)cc13", "note": "(stereo partly specified)", "Potency": "inconclusive: 22.4 µM [inhibitor, single point]"}
    ]}
  ]
}
